Data taken from patent publication US20170107179A1 (Tetraphase Pharmaceuticals, Inc., priority 2010, published 2017).

Tested on: Klebsiella pneumoniae KP109 (ATCC 13883)
Assay: Minimum Inhibitory Concentration (MIC) assay, CLSI broth dilution
Set-up: key: A = lower than or equal to lowest MIC among three control compounds; B = greater than lowest MIC among three control compounds, but lower than highest MIC among three control compounds; C = greater than MIC of all three control compounds
Conditions: class vs MICs of sancycline, minocycline, tigecycline
Procedure: (§1) Briefly, frozen bacterial strains were thawed and subcultured onto Mueller Hinton Broth (MHB) or other appropriate media (Streptococcus requires blood and Haemophilus requires hemin and NAD). Following incubation overnight, the strains were subcultured onto Mueller Hinton Agar and again incubated overnight. […] Isolated colonies were selected to prepare a starting inoculum equivalent to a 0.5 McFarland standard. The starting inoculum was diluted 1:125 (this is the working inoculum) using MHB for further use. […] .
(§2) The assays were run as follows. Fifty μL of MHB was added to wells 2-12 of a 96-well plate. One hundred μL of appropriately diluted antibiotics was added to well 1. Fifty μL of antibiotics was removed from well 1 and added to well 2 and the contents of well 2 mixed by pipetting up and down five times. Fifty μL of the mixture in well 2 was removed and added to well 3 and mixed as above. Serial dilutions were continued in the same manner through well 12. Fifty μL was removed from well 12 so that all contained 50 μL. Fifty μL of the working inoculum was then added to all test wells. A growth control well was prepared by adding 50 μL of working inoculum and 50 μL of MHB to an empty well. The plates were then incubated at 37° C. overnight, removed from the incubator and each well was read on a plate reading mirror. The lowest concentration (MIC) of test compound that inhibited the growth of the bacteria was recorded.
(§3) The following bacterial strains, listed below, were examined in minimum inhibitory concentration (MIC) assays.

Row | Compound | MIC KP109 13883
1 | CCC(C)(C)N1Cc2c(O)c3c(c(F)c2C1)C[C@H]1C[C@H]2[C@H](N(C)C)C(O)=C(C(N)=O)C(=O)[C@@]2(O)C(O)=C1C3=O [Compound 129] | B
2 | CC[C@@H](C)N1Cc2c(O)c3c(c(F)c2C1)C[C@H]1C[C@H]2[C@H](N(C)C)C(O)=C(C(N)=O)C(=O)[C@@]2(O)C(O)=C1C3=O [Compound 130] | B
3 | CN(C)CC(=O)N1Cc2c(O)c3c(c(F)c2C1)C[C@H]1C[C@H]2[C@H](N(C)C)C(O)=C(C(N)=O)C(=O)[C@@]2(O)C(O)=C1C3=O [Compound 131] | B
4 | CN(C)[C@@H]1C(O)=C(C(N)=O)C(=O)[C@@]2(O)C(O)=C3C(=O)c4c(O)c5c(c(F)c4C[C@H]3C[C@@H]12)CN(C(C)(C)CC(C)(C)C)C5 [Compound 133] | B
5 | COCCN1Cc2c(O)c3c(c(F)c2C1)C[C@H]1C[C@H]2[C@H](N(C)C)C(O)=C(C(N)=O)C(=O)[C@@]2(O)C(O)=C1C3=O [Compound 134] | B
6 | CN(C)[C@@H]1C(O)=C(C(N)=O)C(=O)[C@@]2(O)C(O)=C3C(=O)c4c(O)c5c(c(F)c4C[C@H]3C[C@@H]12)CN(C(C)(C)CO)C5 [Compound 136] | B
7 | CC(C)[C@H](C)N1Cc2c(O)c3c(c(F)c2C1)C[C@H]1C[C@H]2[C@H](N(C)C)C(O)=C(C(N)=O)C(=O)[C@@]2(O)C(O)=C1C3=O [Compound 137] | B
8 | CN(C)[C@@H]1C(O)=C(C(N)=O)C(=O)[C@@]2(O)C(O)=C3C(=O)c4c(O)c5c(c(F)c4C[C@H]3C[C@@H]12)CN(C(=O)CN1CCCC1)C5 [Compound 139] | B
9 | CN(C)[C@@H]1C(O)=C(C(N)=O)C(=O)[C@@]2(O)C(O)=C3C(=O)c4c(O)c5c(c(F)c4C[C@H]3C[C@@H]12)CN([C@@H]1CCOC1)C5 [Compound 140] | B
10 | CCCN1Cc2c(O)c3c(c(F)c2C1)C[C@H]1C[C@H]2[C@H](N(C)C)C(O)=C(C(N)=O)C(=O)[C@@]2(O)C(O)=C1C3=O [Compound 142] | B
11 | CC(C)N1Cc2c(O)c3c(c(F)c2C1)C[C@H]1C[C@H]2[C@H](N(C)C)C(O)=C(C(N)=O)C(=O)[C@@]2(O)C(O)=C1C3=O [Compound 143] | B
12 | CN(C)[C@@H]1C(O)=C(C(N)=O)C(=O)[C@@]2(O)C(O)=C3C(=O)c4c(O)c5c(c(Cl)c4C[C@H]3C[C@@H]12)CN(C(C)(C)C)C5 [Compound 144] | B
13 | CN(C)[C@@H]1C(O)=C(C(N)=O)C(=O)[C@@]2(O)C(O)=C3C(=O)c4c(O)c5c(c(F)c4C[C@H]3C[C@@H]12)CN(C(C)(C)CN1CCCC1)C5 [Compound 146] | B
14 | CN(C)[C@@H]1C(O)=C(C(N)=O)C(=O)[C@@]2(O)C(O)=C3C(=O)c4c(O)c5c(c(F)c4C[C@H]3C[C@@H]12)CN(C(=O)CN1CC[C@H](F)C1)C5 [Compound 147] | B
15 | CCCN1Cc2c(O)c3c(c(Cl)c2C1)C[C@H]1C[C@H]2[C@H](N(C)C)C(O)=C(C(N)=O)C(=O)[C@@]2(O)C(O)=C1C3=O [Compound 149] | B
16 | CCC(C)(C)N1Cc2c(O)c3c(c(Cl)c2C1)C[C@H]1C[C@H]2[C@H](N(C)C)C(O)=C(C(N)=O)C(=O)[C@@]2(O)C(O)=C1C3=O [Compound 150] | B
17 | CN(C)[C@@H]1C(O)=C(C(N)=O)C(=O)[C@@]2(O)C(O)=C3C(=O)c4c(O)c5c(c(F)c4C[C@H]3C[C@@H]12)CCN(C(C)(C)C)C5 [Compound 200] | B

Tested on: Pseudomonas aeruginosa PA111 (ATCC 27853)
Assay: as above
Set-up: key: A = lower than or equal to lowest MIC among three control compounds; B = greater than lowest MIC among three control compounds, but lower than highest MIC among three control compounds; C = greater than MIC of all three control compounds
Conditions: class vs MICs of sancycline, minocycline, tigecycline
Procedure: as §1, §2, §3

Row | Compound | MIC PA111 27853
18 | CCC(C)(C)N1Cc2c(O)c3c(c(F)c2C1)C[C@H]1C[C@H]2[C@H](N(C)C)C(O)=C(C(N)=O)C(=O)[C@@]2(O)C(O)=C1C3=O [Compound 129] | B
19 | CC[C@@H](C)N1Cc2c(O)c3c(c(F)c2C1)C[C@H]1C[C@H]2[C@H](N(C)C)C(O)=C(C(N)=O)C(=O)[C@@]2(O)C(O)=C1C3=O [Compound 130] | B
20 | CN(C)CC(=O)N1Cc2c(O)c3c(c(F)c2C1)C[C@H]1C[C@H]2[C@H](N(C)C)C(O)=C(C(N)=O)C(=O)[C@@]2(O)C(O)=C1C3=O [Compound 131] | B
21 | CN(C)[C@@H]1C(O)=C(C(N)=O)C(=O)[C@@]2(O)C(O)=C3C(=O)c4c(O)c5c(c(F)c4C[C@H]3C[C@@H]12)CN(C(C)(C)CC(C)(C)C)C5 [Compound 133] | B
22 | COCCN1Cc2c(O)c3c(c(F)c2C1)C[C@H]1C[C@H]2[C@H](N(C)C)C(O)=C(C(N)=O)C(=O)[C@@]2(O)C(O)=C1C3=O [Compound 134] | B
23 | CN(C)[C@@H]1C(O)=C(C(N)=O)C(=O)[C@@]2(O)C(O)=C3C(=O)c4c(O)c5c(c(F)c4C[C@H]3C[C@@H]12)CN(C(C)(C)CO)C5 [Compound 136] | B
24 | CC(C)[C@H](C)N1Cc2c(O)c3c(c(F)c2C1)C[C@H]1C[C@H]2[C@H](N(C)C)C(O)=C(C(N)=O)C(=O)[C@@]2(O)C(O)=C1C3=O [Compound 137] | B
25 | CN(C)[C@@H]1C(O)=C(C(N)=O)C(=O)[C@@]2(O)C(O)=C3C(=O)c4c(O)c5c(c(F)c4C[C@H]3C[C@@H]12)CN(C(=O)CN1CCCC1)C5 [Compound 139] | B
26 | CN(C)[C@@H]1C(O)=C(C(N)=O)C(=O)[C@@]2(O)C(O)=C3C(=O)c4c(O)c5c(c(F)c4C[C@H]3C[C@@H]12)CN([C@@H]1CCOC1)C5 [Compound 140] | B
27 | CCCN1Cc2c(O)c3c(c(F)c2C1)C[C@H]1C[C@H]2[C@H](N(C)C)C(O)=C(C(N)=O)C(=O)[C@@]2(O)C(O)=C1C3=O [Compound 142] | B
28 | CC(C)N1Cc2c(O)c3c(c(F)c2C1)C[C@H]1C[C@H]2[C@H](N(C)C)C(O)=C(C(N)=O)C(=O)[C@@]2(O)C(O)=C1C3=O [Compound 143] | B
29 | CN(C)[C@@H]1C(O)=C(C(N)=O)C(=O)[C@@]2(O)C(O)=C3C(=O)c4c(O)c5c(c(Cl)c4C[C@H]3C[C@@H]12)CN(C(C)(C)C)C5 [Compound 144] | B
30 | CN(C)[C@@H]1C(O)=C(C(N)=O)C(=O)[C@@]2(O)C(O)=C3C(=O)c4c(O)c5c(c(F)c4C[C@H]3C[C@@H]12)CN(C(C)(C)CN1CCCC1)C5 [Compound 146] | B
31 | CN(C)[C@@H]1C(O)=C(C(N)=O)C(=O)[C@@]2(O)C(O)=C3C(=O)c4c(O)c5c(c(F)c4C[C@H]3C[C@@H]12)CN(C(=O)CN1CC[C@H](F)C1)C5 [Compound 147] | B
32 | CCCN1Cc2c(O)c3c(c(Cl)c2C1)C[C@H]1C[C@H]2[C@H](N(C)C)C(O)=C(C(N)=O)C(=O)[C@@]2(O)C(O)=C1C3=O [Compound 149] | B
33 | CCC(C)(C)N1Cc2c(O)c3c(c(Cl)c2C1)C[C@H]1C[C@H]2[C@H](N(C)C)C(O)=C(C(N)=O)C(=O)[C@@]2(O)C(O)=C1C3=O [Compound 150] | B
34 | CN(C)[C@@H]1C(O)=C(C(N)=O)C(=O)[C@@]2(O)C(O)=C3C(=O)c4c(O)c5c(c(F)c4C[C@H]3C[C@@H]12)CCN(C(C)(C)C)C5 [Compound 200] | B
